# Measurements as given in PMC4336329 (PLoS ONE, 2015).
# In all, about 310,000 compounds went through this assay and about 14,000 (4.5%) showed an effect of 50% or more. Effects have a minus sign here. This is one part of the list.
# Target: human ether-à-go-go-related gene (hERG) potassium channel (human, UniProt Q12809)
# Assay: primary screen, population patch clamp on CHO cells stably expressing hERG
# 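Also: peak tail current of the secondary pulse compared with the same well before compound.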
# Sequence of human ether-à-go-go-related gene (hERG) potassium channel (Q12809 whole entry, looked up): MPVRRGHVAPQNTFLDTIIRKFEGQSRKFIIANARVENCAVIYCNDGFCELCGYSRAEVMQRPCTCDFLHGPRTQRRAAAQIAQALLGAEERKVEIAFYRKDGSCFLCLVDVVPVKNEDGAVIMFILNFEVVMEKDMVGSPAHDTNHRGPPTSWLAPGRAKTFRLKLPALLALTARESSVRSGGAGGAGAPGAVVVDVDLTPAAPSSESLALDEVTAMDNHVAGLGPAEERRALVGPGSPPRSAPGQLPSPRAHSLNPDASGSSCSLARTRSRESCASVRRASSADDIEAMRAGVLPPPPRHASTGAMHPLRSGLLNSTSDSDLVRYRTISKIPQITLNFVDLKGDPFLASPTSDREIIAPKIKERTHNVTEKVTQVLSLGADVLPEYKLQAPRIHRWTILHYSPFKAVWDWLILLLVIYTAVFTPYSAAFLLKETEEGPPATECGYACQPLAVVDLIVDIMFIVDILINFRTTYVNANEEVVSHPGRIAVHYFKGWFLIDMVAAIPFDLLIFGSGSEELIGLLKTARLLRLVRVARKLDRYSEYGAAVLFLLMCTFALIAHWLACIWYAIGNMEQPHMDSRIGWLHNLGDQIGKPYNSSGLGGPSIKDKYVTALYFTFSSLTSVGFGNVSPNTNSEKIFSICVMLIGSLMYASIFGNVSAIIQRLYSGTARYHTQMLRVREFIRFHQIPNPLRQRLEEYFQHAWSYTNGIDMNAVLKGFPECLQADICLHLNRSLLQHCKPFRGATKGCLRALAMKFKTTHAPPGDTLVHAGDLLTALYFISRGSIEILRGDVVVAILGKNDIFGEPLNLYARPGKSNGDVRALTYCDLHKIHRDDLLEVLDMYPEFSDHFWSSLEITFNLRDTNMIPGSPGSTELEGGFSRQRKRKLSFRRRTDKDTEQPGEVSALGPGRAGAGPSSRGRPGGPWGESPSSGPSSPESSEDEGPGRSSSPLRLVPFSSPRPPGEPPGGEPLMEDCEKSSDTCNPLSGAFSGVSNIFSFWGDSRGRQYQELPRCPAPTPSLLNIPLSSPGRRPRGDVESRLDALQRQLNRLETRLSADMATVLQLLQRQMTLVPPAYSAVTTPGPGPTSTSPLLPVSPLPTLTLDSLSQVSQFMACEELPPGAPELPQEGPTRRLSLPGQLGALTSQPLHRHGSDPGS
row,Compound,"hERG current change (%, negative = inhibition) at 10uM"
1,CC1(C)C(=O)Nc2ccccc2N1C(=O)COC(=O)Cc1c(F)cccc1Cl,-50.1%
2,O=S(=O)(Nc1nc2ccccc2nc1N1CCN(c2ccccc2)CC1)c1ccc(F)cc1,9.01%
3,Cc1ccccc1C(=O)/C=C1\NC(=O)CS1,-0.633%
4,O=C(Nc1ccc2c(c1)CCC2)C1CCCN(c2ncccn2)C1 (stereo not drawn),-2.53%
5,COCCNC(=O)c1ccc(CS(=O)(=O)c2ccc(C)cc2)o1,-19.7%
6,COc1ccc(NC(=O)Nc2ccccn2)cc1OC,25.6%
7,CCn1cc(CN2CCN(CCc3ccccc3)C(CCO)C2)c(C)n1 (stereo not drawn),-31%
8,Cc1cc(=O)[nH]c(NCCO)n1,20.2%
9,CCCc1ccc(OCCNC(=O)c2ccco2)cc1,-23.9%
10,Cc1ccc(Cl)cc1N1CCN(CC(O)COCc2ccco2)CC1.O=C(O)C(=O)O (stereo not drawn),-73.1%
11,Cc1ccc(/C=C2\Oc3c(ccc(O)c3CN3CCN(C)CC3)C2=O)cc1,-15%
12,O=C(OCCCN=C1NS(=O)(=O)c2ccccc21)c1ccc(F)cc1,-19.2%
13,Cc1nc2ccccc2c(=O)n1-c1ccc(NS(=O)(=O)c2ccc(F)cc2F)cc1,-33.2%
14,CC(C)(C)OC(=O)CNC(=O)c1nc[nH]c1C(=O)N1CCc2ccccc2C1,-0.634%
15,O=C(COc1ccc2c(c1)OCO2)Nc1ccc2c(c1)oc1ccccc12,8.12%
16,CCN1C(=O)C(CC(=O)Nc2ccc(OC)cc2)N(CCc2ccc(OC)cc2)C1=S (stereo not drawn),-1.17%
17,COC(=O)CC1C(=O)NCCN1C(=O)CSc1nc2ccccc2c(=O)n1CC(C)C (stereo not drawn),-10.2%
18,O=C(NC1CCN(Cc2ccc(Cl)cc2Cl)CC1)c1ccccc1,-53.9%
19,O=C(O)/C=C\C(=O)Nc1cc(O)ccc1[N+](=O)[O-],8.77%
20,Cc1ccc(C(=O)CCC(=O)OCC(=O)NNC(=O)c2ccc([N+](=O)[O-])cc2)cc1,-43.3%
21,COc1cccc(OCC(=O)NNC(=S)Nc2ccc(Cl)cc2Cl)c1,10.3%
22,Cc1ccc(C(=O)NNC(=O)c2ccc3ccccc3c2O)cc1,-24.4%

row,Compound,"hERG current change (%, negative = inhibition) at 10uM"
1,CCCNC(=O)C(Cc1ccccc1)NS(=O)(=O)c1ccc2c(c1)c(=O)n(C)c(=O)n2C (stereo not drawn),-0.669%
2,CC(=O)Nc1ccc(S(=O)(=O)Nc2cccc(NC(=O)C(C)(C)C)c2)cc1,19.5%
3,N#Cc1ccsc1NC(=O)CN1C(=O)NC2(CCCC2)C1=O,-5.8%
4,Cc1cc(C)c2[nH]c(C(=O)N3CCC(n4nccc4NC(=O)C4CC4)CC3)c(C)c2c1,-44.6%
5,O=C(O)CC(CC(=O)Nc1ccc2ccccc2n1)c1ccccc1 (stereo not drawn),9.58%
6,COc1ccc(C)cc1NC(=O)C1CCCN(S(=O)(=O)c2ccc3[nH]c(=O)ccc3c2)C1 (stereo not drawn),-25.2%
7,Cc1cccc(-n2ncc3c(N(C)C4CCCCC4)ncnc32)c1,-9.07%
8,CC(C)CC(=O)Nc1c2c(nn1-c1cccc(Cl)c1)CS(=O)(=O)C2,-40.8%
9,Cc1ccc([N+](=O)[O-])cc1S(=O)(=O)Nc1ccc(OCC(=O)N2CCOCC2)cc1,-33.4%
10,CCN(CC)CCn1c2c(c(SCC(=O)Nc3ccc(C(C)C)cc3)nc1=O)CCC2,-56.9%
11,CC(C)[C@H](Nc1ccc(C(F)(F)F)cc1[N+](=O)[O-])C(=O)O.[Cl-],20%
12,COc1cc(C(Nc2ccc(S(=O)(=O)N3CCC(C)CC3)cc2)C(=O)NCC2CCCO2)cc(OC)c1OC (stereo not drawn),-8.19%
13,CCC1=[N+](C)CCn2c(C)ccc21.[I-],24%
14,Cc1cnc(C)c(N2CCC(C(=O)NC(C)c3cccs3)CC2)n1 (stereo not drawn),-11.4%
15,Cc1cc(CNCc2c(C(=O)N(C)Cc3ccccc3)nc3ccccn23)nn1C,4.49%
16,CCOc1cc(C(=S)N2CCCC2)ccc1OCc1ccccc1,7.93%
17,COc1cc(-c2ccc3sc(-c4ccsc4)c(C#CCO)c3c2)cc(OC)c1OC,16.5%
18,COc1cc(C(=O)O)nc2ccc([N+](=O)[O-])cc12,1.67%
19,Nc1ccc2nc(SCc3ccccc3F)sc2c1,0.868%
20,O=C(Nc1nn[nH]n1)C12CC3CC(CC(C3)C1)C2,18.7%
21,COc1ccccc1CC1/C(=N/O)C2CCN1CC2.Cl (stereo not drawn),2.01%
22,CCCCCC(=O)Nc1nnc(CCc2ccccc2)s1,3.33%

row,Compound,"hERG current change (%, negative = inhibition) at 10uM"
1,O=C(O)CSc1ncnc2sc3c(c12)CCC3,16.3%
2,COc1ccc(N2C(=O)CC(NCC#N)C2=O)cc1 (stereo not drawn),-7.33%
3,O=c1[nH]c(=O)n(Cc2ccco2)c(O)c1C=NCCCn1ccnc1,16.3%
4,CC(C)CC(NC(N)=O)C(=O)Nc1ccc(Oc2ccccc2)cc1 (stereo not drawn),10.1%
5,COCCCN1C(=O)C(=O)/C(=C(/O)c2ccc(OCC(C)C)cc2C)C1c1cccnc1 (stereo not drawn),-13.4%
6,COc1ccc(CNc2nc(-c3ccccc3)nn2C(=O)c2cccs2)cc1,-0.215%
7,CC1(C)CC(=O)C(C(C2=C(O)CC(C)(C)CC2=O)c2ccco2)C(=O)C1 (stereo not drawn),8.79%
8,Cc1ccc(CNc2nc(N)c([N+](=O)[O-])c(NCc3ccccc3)n2)cc1,12%
9,Cc1oc2nc(SCCCC(=O)NCCCO)nc(N)c2c1C,9.44%
10,CCc1nnc(NS(=O)(=O)c2ccc(NC(=O)CCC(=O)O)cc2)s1,20.8%
11,Cc1ccc(S(=O)(=O)C2(C(=O)N3CCN(c4ccccc4F)CC3)CC2)cc1,-2.52%
12,CCC(C)[C@H](NC(=O)N1CC(=O)Nc2ccccc21)C(=O)N[C@@H](C(=O)O)c1ccccc1 (stereo partly drawn),18%
13,C[C@]12C=CC(=O)C=C1CC[C@H]1[C@@H]3C[C@@H](O)[C@](O)(C(=O)CO)[C@@]3(C)C[C@H](O)[C@@]12F,6.23%
14,Cc1ccc(NS(=O)(=O)c2cccc(C(=O)NCC(c3ccco3)N3CCCC3)c2)cc1 (stereo not drawn),-47.4%
15,Oc1ccccc1N1CCN(C(=S)Nc2ccc(SC(F)F)cc2)CC1,14.9%
16,Cc1ccc2c(c1)C(=O)N(CCCCO)C2=O,20.1%
17,Cn1c(N)c(Sc2ccc(F)cc2)c(=O)n(C)c1=O,11.4%
18,Cc1cc(NC(=O)CSc2nc(=O)cc(N)n2-c2ccc(Cl)cc2)no1,6.98%
19,Cc1ccc2c(c1)[C@H]1OCC[C@H]1[C@@H](c1ccncc1)N2,10.2%
20,NC(=O)c1ccc(-n2nnnc2SCC(=O)NC2CCCCC2)cc1,4.36%
21,O=c1c2ccccc2ncn1-c1ccccc1[N+](=O)[O-],11.9%
22,CCOc1ccc(NC(=O)C2CCN(S(=O)(=O)c3cccnc3)CC2)cc1,-4.14%

row,Compound,"hERG current change (%, negative = inhibition) at 10uM"
1,CC(=O)N1CCc2cc(S(=O)(=O)NC(C(=O)Nc3ccc4c(c3)OCCO4)C(C)C)ccc21 (stereo not drawn),16.5%
2,CCCCCN(C(=O)NC(=O)NC(C)CC)S(C)(=O)=O (stereo not drawn),9.23%
3,O=C(Nc1nc(-c2ccccn2)cs1)c1ncc(Cl)c(Cl)c1Cl,-6.08%
4,CC(C)N(Cc1nc(-c2ccc(Cl)cc2)no1)Cc1nccn1C,-50.4%
5,Cc1nn(C)cc1S(=O)(=O)NCc1ccc2c(c1)OCO2,12.5%
6,COc1ccccc1NC(=O)Cn1c(=O)n2nc(C)nc2c2ccccc21,8.7%
7,CS(=O)(=O)N(CC(=O)Nc1ccccc1C(=O)NCc1ccco1)c1ccc2c(c1)OCCO2,-5.03%
8,CN(C)CCCN(C(=O)COc1ccc(Cl)cc1)c1nc2ccc(F)cc2s1.Cl,-21.4%
9,CCN(CC)C(=O)c1cc(-c2ccc3c(c2)OCO3)on1,10.8%
10,Cc1csc(SCC(=O)NCc2cccs2)n1,3.97%
11,Cc1cc(N2CCCN(C)CC2)nc2cc(Cl)ccc12,-61.7%
12,Brc1ccc(C2Nc3cccc4cccc(c34)N2)s1,7.9%
13,CC1CC(C)CN(S(=O)(=O)CCNC(=O)c2ccccc2)C1 (stereo not drawn),-0.0469%
14,Cc1ccc2c(c1)N(Cc1cccc(Cl)c1)C(=O)c1cccnc1O2,-14.3%
15,O=C(CSc1nc2ncc(Cl)cc2[nH]1)Nc1cccc(F)c1,12.8%
16,CCOc1cc(C2CC(=O)N3CN(C4CCCCC4)CSC3=C2C#N)ccc1O (stereo not drawn),-14.4%
17,O=C(Nc1ccc(N2CCOCC2)nc1)c1ccc(F)cc1,-8.42%
18,CCCCCCSc1cccc(-c2nc3ccc(Cl)cn3c2NCc2ccccc2)c1.O=C(O)C(F)(F)F,8.84%
19,N#C/C(=C\c1cccc([N+](=O)[O-])c1)c1ccccn1,-16%
20,Cc1ccc(OCC(=O)NC(C)c2ccccc2)cc1 (stereo not drawn),-1.19%
21,O=S(=O)(c1ccc(C2CCCCC2)cc1)N1CCCC1,22.2%
